From PubChem BioAssay AID1460 (National Center for Advancing Translational Sciences (NCATS), 2008)
The whole screen tested about 270,000 compounds, of which about 5,800 (2.1%) were called active. The inconclusive results got no clear call from the source; some entries with a clear call stand among them for comparison. The call rests on the fitted dose curve; in most records, active means well fitted inhibition curve with a large enough effect; inconclusive means small, poorly fitted or top-dose-only effect; inactive means flat fitted curve, though single readings scatter. Where the call is inconclusive, the potency comes from a doubtful curve fit.

target: Microtubule-associated protein tau (Homo sapiens) (UniProt P10636); experiment: qHTS for Inhibitors of Tau Fibril Formation, Thioflavin T Binding; conditions: recombinant tau K18 P301L (four-repeat tau fragment), heparin-induced fibrillization, ThT fluorescence; series mostly up to 57.4 µM; activity, negative = inhibition: at the top concentration; further: nearly all actives have a fitted effect of over 55% in size
UniProt P10636, sequence (P10636 whole entry, looked up, the tested form may be a part): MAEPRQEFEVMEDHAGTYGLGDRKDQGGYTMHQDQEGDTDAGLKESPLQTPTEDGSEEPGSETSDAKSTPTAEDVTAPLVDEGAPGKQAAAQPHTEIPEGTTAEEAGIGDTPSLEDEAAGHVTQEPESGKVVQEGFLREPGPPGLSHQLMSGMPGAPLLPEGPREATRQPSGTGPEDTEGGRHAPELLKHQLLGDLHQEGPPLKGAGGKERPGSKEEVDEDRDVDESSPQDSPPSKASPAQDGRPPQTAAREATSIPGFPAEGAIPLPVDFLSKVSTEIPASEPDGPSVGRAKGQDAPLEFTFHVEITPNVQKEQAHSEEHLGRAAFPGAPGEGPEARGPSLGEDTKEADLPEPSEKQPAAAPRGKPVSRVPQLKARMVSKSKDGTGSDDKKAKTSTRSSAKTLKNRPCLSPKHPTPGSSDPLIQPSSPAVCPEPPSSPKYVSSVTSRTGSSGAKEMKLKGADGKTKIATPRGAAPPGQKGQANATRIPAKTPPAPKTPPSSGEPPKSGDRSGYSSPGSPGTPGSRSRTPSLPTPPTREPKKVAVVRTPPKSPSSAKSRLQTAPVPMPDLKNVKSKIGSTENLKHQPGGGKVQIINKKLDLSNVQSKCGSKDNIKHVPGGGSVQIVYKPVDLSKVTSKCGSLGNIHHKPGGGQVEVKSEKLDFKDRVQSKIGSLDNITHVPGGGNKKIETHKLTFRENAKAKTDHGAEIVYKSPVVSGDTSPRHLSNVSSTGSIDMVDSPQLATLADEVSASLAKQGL
In short: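 In this qHTS, human K18 P301L tau is incubated with compound and heparin for 6 hr at 37 C, and Thioflavin T fluorescence then reports fibril load.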
On the % scale 0 is the no-effect control and ±100 the full control effect; potency means the concentration at half of the fitted maximal effect; tags describe the fitted curve by direction and shape.

Q: Which Potency does the source give for `COc1ccc(OC)c(C(c2nnnn2C(C)(C)C)N2CCc3ccccc3C2)c1` (stereo not given) here?
A: inconclusive: 44.7 µM [inhibitor, single point]

Q: With `CC(C)CS(=O)(=O)c1oc(-c2ccc(F)cc2)nc1S(=O)(=O)c1ccccc1` as the compound, how does the Potency read?
A: inconclusive: 8.91 µM [inhibitor, single point]

Q: For `COC(=O)c1cc(-c2ccc(S(=O)(=O)N3CCCC(C)C3)cc2)c(C(F)(F)F)s1` (stereo not given), which “activity, negative = inhibition” value is on record?
A: inactive: -3.94%

Q: For `CCN(CC)c1nc2c3c(nc4c(c3c1C#N)CC(=O)N4c1ccc(Cl)cc1)NC(C)=N2`, which Potency is on record?
A: active: 15.8 µM

Q: `c1ccc(-c2csc(N3CCN(c4ccccn4)CC3)n2)cc1` was tested. Which Potency did it give?
A: inconclusive: 10 µM [inhibitor, partial curve]

Q: With `Nc1nc(SCC(=O)NCCCN2CCOCC2)nc2sc3c(c12)CCC3` as the compound, how does the “activity, negative = inhibition” value read?
A: inactive: -5.4%

Q: For `O=C1CC(=O)N2N=C(c3ccc([N+](=O)[O-])cc3)SC2=N1`, which Potency is on record?
A: inconclusive: 11.2 µM [inhibitor, partial curve]

Q: For `COc1ccc(CCNC(=O)c2cnc3ccc(C)cn3c2=O)cc1`, which “activity, negative = inhibition” value is on record?
A: inactive: -2.32%

Q: For `Cc1ccc(N2NC(=O)/C(=C/C=C/c3ccco3)C2=O)cc1C`, which Potency is on record?
A: active: 10 µM

Q: With `CCOc1ccccc1NC(=O)c1c(NC(=O)COc2ccccc2)sc2c1CCCCC2` as the compound, how does the “activity, negative = inhibition” value read?
A: inactive: -3.66%

Q: Which Potency does the source give for `Cc1ccc2[nH]c(C(=O)O)c(NC(=O)[C@@H]3C[C@@H]3c3ccccc3)c2c1` here?
A: inconclusive: 25.1 µM [inhibitor, single point]

Q: `C=C(C)CNC(=S)N=Nc1c(O)[nH]c2ccc([N+](=O)[O-])cc12` was tested. Which Potency did it give?
A: inconclusive: 12.6 µM [inhibitor, partial curve]

Q: For `CC(=O)Nc1ccc(S(=O)(=O)Oc2ccc(/C=N/N=C3/NC(=O)C(CC(=O)O)S3)cc2)cc1` (stereo not given), which Potency is on record?
A: inconclusive: 44.7 µM [inhibitor, single point]

Q: How did the Potency turn out when `C/C(CCC(=O)OC[C@H]1O[C@H](C#Cc2ccccc2)C=C[C@@H]1Oc1ccc(C)cc1)=N\OC[C@@H](O)[C@H]1O[C@@H]2OC(C)(C)O[C@@H]2[C@H]1O` was run?
A: inconclusive: 20 µM [inhibitor, single point]

Q: `COc1ccc(-c2cc3nc4n(c(=O)c3s2)CCCCC4)cc1` was tested. Which “activity, negative = inhibition” value did it give?
A: inactive: -5.68%

Q: `CSc1ccc(CCNC(=O)c2cnn(-c3ccccc3)c2-n2cccc2)cc1` was tested. Which Potency did it give?
A: inconclusive: 14.1 µM [inhibitor, partial curve]

Q: How did the Potency turn out when `CC1(C)CC(=O)C(C=Nc2cccnc2/N=C/C2=C(O)CC(C)(C)CC2=O)=C(O)C1` was run?
A: inconclusive: 10 µM [inhibitor, partial curve]

Q: For `CCN(CC)c1cc(C)c2cc(NC(=O)c3cccc(F)c3)ccc2n1`, which Potency is on record?
A: inconclusive: 31.6 µM [inhibitor, partial curve, poor fit]

Q: Which “activity, negative = inhibition” value does the source give for `NC(N)=NCCC[C@H](NC(=O)[C@@H](N)Cc1ccc(O)cc1)C(=O)O` here?
A: inactive: -7.61%

Q: `O=C(Nc1cccc(Cl)c1)N1CCSc2ccccc21` was tested. Which “activity, negative = inhibition” value did it give?
A: inactive: -0.454%

Q: With `Nc1n[nH]c(=S)n1/N=C1/C(=O)Nc2ccccc21` as the compound, how does the Potency read?
A: active: 17.8 µM

Q: Which “activity, negative = inhibition” value does the source give for `CCc1ccc(NC(=O)Nc2ccc3c(c2)N(C)C(=O)CS3)cc1` here?
A: inactive: -18.1%

Q: With `COc1ccc2[nH]cc(CCNc3nc(-c4ccc(C(=O)N(C)C)cc4)nc4ccccc34)c2c1` as the compound, how does the Potency read?
A: inconclusive: 11.2 µM [inhibitor, partial curve, poor fit]

Q: With `c1ccc(-c2nccc(-c3ccc(-n4cnc5ccccc54)cc3)n2)nc1` as the compound, how does the Potency read?
A: inconclusive: 2 µM [inhibitor, full curve]

Q: `CCOC(=O)c1cc(-c2ccccc2)n(-c2cccc(C(=O)Nc3cccc(F)c3)c2)c1C` was tested. Which “activity, negative = inhibition” value did it give?
A: inactive: 0.0268%

Q: Which Potency does the source give for `CC1=CC(C)=Nc2ccc(C)cc2N1` here?
A: inactive

Q: For `O=C1N(Cc2cccc(Cl)c2)C[C@@H]2C[C@@H](c3ccccn3)N3CCC[C@@]123`, which Potency is on record?
A: inconclusive: 14.1 µM [inhibitor, partial curve]

Q: Which Potency does the source give for `COc1ccc(C(=O)Nc2nnc(S(=O)(=O)N3CCCCCC3)s2)cc1OC` here?
A: inconclusive: 1.26 µM [inhibitor, full curve]

Q: Which Potency does the source give for `O=C1Nc2ccccc2Oc2cc([N+](=O)[O-])ccc21` here?
A: inconclusive: 39.8 µM [inhibitor, single point]

Q: For `O=C(O)COc1ccccc1C(Nc1ccccn1)c1cc(Cl)c2cccnc2c1O` (stereo not given), which Potency is on record?
A: active: 12.6 µM

Q: How did the Potency turn out when `O=C(Nc1ccc2c(c1)OCCO2)c1cc(-c2ccccn2)nc2ccc(Br)cc12` was run?
A: inconclusive: 1.58 µM [activator, partial curve, poor fit]

Q: `Cc1cc(C)n(C(=O)/C(C#N)=N/Nc2cc(Cl)cc(Cl)c2)n1` was tested. Which Potency did it give?
A: inconclusive: 11.2 µM [inhibitor, partial curve]

Q: `CCN(CC)c1ccc(NC(=O)C2=CCN(S(=O)(=O)c3ccc(F)cc3)CC2)c(C)c1` was tested. Which Potency did it give?
A: inconclusive: 28.2 µM [inhibitor, single point]

Q: For `CCNC(=S)N/N=C/c1cc(C)n(-c2ccc(Cl)cc2)c1C`, which “activity, negative = inhibition” value is on record?
A: inactive: -15.3%

Q: With `CC(=O)C(=Nc1ccccc1Cl)NNc1ccc(Cl)cc1` as the compound, how does the Potency read?
A: active: 6.31 µM

Q: How did the Potency turn out when `CCOC(=O)c1c(N)sc2c(O)c(Br)ccc12` was run?
A: inconclusive: 7.94 µM [inhibitor, partial curve]

Q: Which Potency does the source give for `CCOc1ccc(N2C(=O)S/C(=C\c3ccc(O)c(OCC)c3)C2=O)cc1` here?
A: inconclusive: 3.16 µM [inhibitor, partial curve]

Q: How did the “activity, negative = inhibition” value turn out when `CCOC(=O)C1CCCN(c2nnnn2-c2ccccc2)C1` (stereo not given) was run?
A: inactive: 5.13%

Q: With `CN(C)c1ccc(/C=N\NC(=S)SCN2C(=O)C3CCC(C)(C2=O)C3(C)C)cc1` (stereo not given) as the compound, how does the Potency read?
A: active: 8.91 µM

Q: Which Potency does the source give for `O=C(COc1ccc(Cl)cc1)OCc1cc(=O)n2nc(-c3cccs3)sc2n1` here?
A: inconclusive: 17.8 µM [inhibitor, partial curve]

Q: `C/C(=N/OC(=O)c1ccc(C)cc1)c1cccs1` was tested. Which Potency did it give?
A: inconclusive: 8.91 µM [inhibitor, partial curve]

Q: How did the Potency turn out when `CC(C)c1ccc(NC(=O)c2snc3ccc(Cl)cc23)cc1` was run?
A: inconclusive: 15.8 µM [inhibitor, partial curve]

Q: For `O=C(O)c1ccc(N2Cc3ccccc3C2)cc1O`, which “activity, negative = inhibition” value is on record?
A: inactive: 2.46%

Q: `COCCN(CCOC)C(=S)Nc1ccccc1Cl` was tested. Which “activity, negative = inhibition” value did it give?
A: inactive: 1.33%

Q: With `CC(=O)OC[C@@H]1O[C@H](CCON=C(C)C)C=C[C@@H]1OC(C)=O` as the compound, how does the Potency read?
A: inconclusive: 0.178 µM [inhibitor, single point]
